Consider 59 molecules from the supplement of paper PMC12340641.

The structures appear in SMILES notation. Whole data set: some 1,000 compounds, median “relative growth recovery (pomalidomide 10 uM = 100%, DMSO = 0%)” near -1.6, cut for the highest 2% near 21. The list shows a part of the results.

The test relates to HEK293FT dCK*-IKZF1. Nature of the test: relative growth recovery (pomalidomide 10 uM = 100%, DMSO = 0%); higher = more growth rescue (IKZF1 fusion degradation). As to conditions: compound concentration: 5 uM; AraC concentration: 0.3 uM; overnight pretreatment + 4 days AraC. As for the experimental part: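 Growth recovery screen of the molecular-glue-like (Specs) library. HEK293FT cells expressing a dCK*-IKZF1 fusion (primary) or dCK* alone (counter) were pretreated overnight with compound at 5 uM, then given 0.3 uM AraC for 4 days. Hoechst nuclei were counted by imaging. Primary: normalised to pomalidomide (100%) and DMSO (0%), mean of 2 replicates. Counter: normalised to no-AraC (100%) and AraC+DMSO (0%), single replicate.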
For the molecule `COc1ccccc1OCC(=O)Nc1ccc(S(=O)(=O)Nc2nc(C)cc(C)n2)cc1`, the relative growth recovery was found to be 0.575%.

In the case of `COc1cccc(C(=O)Nc2ccc(S(=O)(=O)Nc3ncccn3)cc2)c1`, the relative growth recovery stood at 0.05%.

Take `Cc1ccnc(NS(=O)(=O)c2ccc(NC(=O)c3cccc(Cl)c3)cc2)n1`: the relative growth recovery was -1.19%.

As to `Cc1cc(NS(=O)(=O)c2ccc(NC(=O)CCCOc3ccccc3C)cc2)nc(C)n1`, the relative growth recovery worked out at 3.3%.

As for `COc1ccc(C(=O)Nc2ccc(S(=O)(=O)Nc3ncccn3)cc2)cc1OC`, the relative growth recovery is 0.805%.

Consider `Cc1ccnc(NS(=O)(=O)c2ccc(NC(=O)CC(C)(C)C)cc2)n1`, for which the relative growth recovery came out at 1.86%.

As to `COCC(C)NC(=O)CN1CCC(c2cccc(Nc3nc(C)c(C)s3)n2)CC1` (centres undefined), the relative growth recovery turned out to be 13.9%.

Take `Cc1cc(NS(=O)(=O)c2ccc(NC(=O)c3ccc(Br)cc3)cc2)nc(C)n1`: the relative growth recovery was -1.85%.

As to `Cc1cc(C)nc(NS(=O)(=O)c2ccc(NC(=O)c3sc4nc5c(cc4c3N)CCC5)cc2)n1`, the relative growth recovery is -3.65%.

`COc1ccc(S(=O)(=O)Nc2ccc(S(=O)(=O)Nc3ncccn3)cc2)cc1`: the relative growth recovery was -2%.

Regarding `Cc1cc(C)nc(NS(=O)(=O)c2ccc(NC(=O)c3ccccc3[N+](=O)[O-])cc2)n1`, the relative growth recovery was -3.98%.

As for `CC(C)(N)C(=O)N1CCC(c2cccc(Nc3ncc(-c4cccnc4)s3)n2)CC1`, the relative growth recovery was -13.5%.

For the molecule `O=C1CCC(N2C(=O)c3ccc(C(=O)O)cc3C2=O)C(=O)N1` (centres undefined), the relative growth recovery was -0.47%.

As to `Cc1cc(NS(=O)(=O)c2ccc(NC(=O)c3cc4ccccc4o3)cc2)nc(C)n1`, the relative growth recovery is -0.785%.

For `Cc1ccc(C)c(OCC(=O)Nc2ccc(S(=O)(=O)Nc3ccccn3)cc2)c1`, the relative growth recovery was -5.29%.

Regarding `Cc1nc(Nc2cccc(C3CCCN3C(=O)COCCN3CCCC3=O)n2)sc1C` (centres undefined), the relative growth recovery stood at 5.06%.

`CCC(Oc1ccccc1)C(=O)Nc1ccc(S(=O)(=O)Nc2nc(C)cc(C)n2)cc1` (centres undefined): the relative growth recovery was -3.29%.

For `COc1cc(NS(=O)(=O)c2ccc(NC(=O)c3ccc(C#N)cc3)cc2)nc(OC)n1`, the relative growth recovery was -3.52%.

As for `Cc1ncc(C(=O)N2CCOC(c3cccc(Nc4nc(C)c(C)s4)n3)C2)c(C)n1` (centres undefined), the relative growth recovery turned out to be 7%.

As to `Cc1cc(C)nc(NS(=O)(=O)c2ccc(NC(=O)c3ccc(C(C)(C)C)cc3)cc2)n1`, the relative growth recovery was 2.96%.

Consider `O=C(Nc1ccc(S(=O)(=O)Nc2ncccn2)cc1)C1CC(=O)N(CCc2ccc(F)cc2)C1` (centres undefined), for which the relative growth recovery is -0.54%.

As to `Cc1nc(C)c(C(=O)N2CCOC(c3cccc(Nc4ncc(C)s4)n3)C2)o1` (centres undefined), the relative growth recovery is -12.6%.

With `Cc1ccc(N2C(=O)c3ccc(Oc4ccc(N)cc4)cc3C2=O)cc1`, the relative growth recovery was -1.57%.

Regarding `Cc1cnc(Nc2cccc(C3CN(C(=O)C(C)n4cnc5ccccc54)CCO3)n2)s1` (centres undefined), the relative growth recovery is -7.25%.

Turning to `CCc1ccc(N2CC(C(=O)Nc3ccc(S(=O)(=O)Nc4ncccn4)cc3)CC2=O)cc1` (centres undefined), the relative growth recovery was -0.75%.

`CCCc1cnc(Nc2cccc(C3(CO)CCN(C(=O)C4CCCCC4)CC3)n2)s1`: the relative growth recovery was -17%.

`Cn1c(=O)c2c(ncn2CC(=O)Nc2ccc(S(=O)(=O)Nc3ncccn3)cc2)n(C)c1=O`: the relative growth recovery worked out at 1.62%.

As to `COc1nccnc1NS(=O)(=O)c1ccc(NC(=S)NC(=O)c2ccco2)cc1`, the relative growth recovery is -1.62%.

Consider `Cc1cc(C)cc(OCC(=O)Nc2ccc(S(=O)(=O)Nc3ccccn3)cc2)c1`, for which the relative growth recovery was -4.37%.

Regarding `COc1cc2c(cc1CCC(=O)N1CCCC1c1cccc(Nc3nccs3)n1)CCC2` (centres undefined), the relative growth recovery was 5.58%.

For the molecule `COc1cc(C(=O)Nc2ccc(S(=O)(=O)Nc3ccccn3)cc2)cc(OC)c1OC`, the relative growth recovery was -2.18%.

With `Cc1ccnc(NS(=O)(=O)c2ccc(NC(=O)c3ccccc3C(=O)O)cc2)n1`, the relative growth recovery is -6.74%.

Regarding `O=C1CCC(N2C(=O)c3cccc(N4CCC(Cn5cc(C(=O)O)cn5)CC4)c3C2=O)C(=O)N1` (centres undefined), the relative growth recovery turned out to be 2.77%.

For the molecule `COc1ccc(NS(=O)(=O)c2ccc(N)cc2)nn1`, the relative growth recovery turned out to be 3.75%.

Consider `COc1cc(NS(=O)(=O)c2ccc(NC(=O)CCC(=O)O)cc2)nc(OC)n1`, for which the relative growth recovery is -2.29%.

Turning to `Cc1nc(Nc2cccc(C3CCN(C(=O)CCc4c(C)n[nH]c4C)CC3)n2)sc1C`, the relative growth recovery was 26%.

Take `Cc1csc(Nc2cccc(C3CCCN3C(=O)c3ccc4c(c3)CCCN4C)n2)n1` (centres undefined): the relative growth recovery is 7.5%.

As to `Cc1cccc(OCCCC(=O)Nc2ccc(S(=O)(=O)Nc3nc(C)cc(C)n3)cc2)c1`, the relative growth recovery is -2.6%.

`O=C(O)CCOCCOCCOCCNc1ccc2c(c1)C(=O)N(C1CCC(=O)NC1=O)C2=O` (centres undefined): the relative growth recovery is -5.78%.

`COCC(=O)N1CCCC1c1cccc(Nc2ncc(C)s2)n1` (centres undefined): the relative growth recovery was 2.41%.

Take `COc1ccc(CC(=O)Nc2ccc(S(=O)(=O)Nc3ncccn3)cc2)cc1OC`: the relative growth recovery was -16.6%.

`O=C1CCC(N2C(=O)c3cc(F)c(N4CCN(C5CCC(C(=O)O)CC5)CC4)cc3C2=O)C(=O)N1` (centres undefined): the relative growth recovery is -5.74%.

In the case of `Cc1ccc(OCC(=O)Nc2ccc(S(=O)(=O)Nc3ncccn3)cc2)cc1C`, the relative growth recovery is -1.98%.

For the molecule `Cc1nc(Nc2cccc(C3CN(CC(=O)N4CCC(C)CC4)CCO3)n2)sc1C` (centres undefined), the relative growth recovery amounted to 13%.

On to `Cc1csc(Nc2cccc(C3CN(C(=O)c4[nH]nc5c4CCCCC5)CCO3)n2)n1` (centres undefined), for which the relative growth recovery amounted to 3.46%.

`Cc1ccc2[nH]c3nc(SCC(=O)Nc4cccc(Cl)c4Cl)nnc3c2c1`: the relative growth recovery is -3.27%.

For the molecule `O=C(/C=C/c1cccnc1)N1CCCC(c2cc3ccccc3c(Nc3nccs3)n2)C1` (centres undefined), the relative growth recovery was -2.04%.

For the molecule `COc1ccc(NS(=O)(=O)c2ccc(NS(=O)(=O)c3ccc(C)cc3)cc2)nn1`, the relative growth recovery amounted to 0.72%.

Consider `Cc1cc(NS(=O)(=O)c2ccc(NC(=O)COc3cccc(Br)c3)cc2)nc(C)n1`, for which the relative growth recovery is -4.59%.

On to `Cc1cc(C)nc(NS(=O)(=O)c2ccc(NC(=S)NC(=O)/C=C/c3ccco3)cc2)n1`, for which the relative growth recovery is -2.82%.

Take `O=C(COc1ccc(-c2ccccc2)cc1)Nc1ccc(S(=O)(=O)Nc2ccccn2)cc1`: the relative growth recovery was -1.72%.

Consider `Cc1ccnc(NS(=O)(=O)c2ccc(NS(=O)(=O)c3ccc(F)cc3)cc2)n1`, for which the relative growth recovery is -0.59%.

`COc1cccc(CC(=O)N2CCC(c3cccc(Nc4nc(C)c(C)s4)n3)CC2)c1`: the relative growth recovery is -1.79%.

On to `CC(C)(C)c1ccc(OCC(=O)Nc2ccc(S(=O)(=O)Nc3ccccn3)cc2)cc1`, for which the relative growth recovery was -5.39%.

Turning to `O=C(CCCOc1ccc(Cl)cc1)Nc1ccc(S(=O)(=O)Nc2ncccn2)cc1`, the relative growth recovery amounted to 0.13%.

Consider `CC(C)(C)C(=O)N1CCC(Cc2ccc(Nc3ncc(-c4ccc(F)cc4)s3)nc2)CC1`, for which the relative growth recovery stood at 12.3%.

`COc1cccc(OC)c1C(=O)Nc1ccc(S(=O)(=O)Nc2nccc(C)n2)cc1`: the relative growth recovery was -4.17%.

Take `Cc1cnc(Nc2cccc(C3CCCN3C(=O)COc3ccccc3)n2)s1` (centres undefined): the relative growth recovery was -18.4%.

Turning to `COc1ccc(C(=O)Nc2ccc(S(=O)(=O)Nc3ccccn3)cc2)cc1OC`, the relative growth recovery was -6.25%.
